Experimental data: PubChem BioAssay AID624417 (National Center for Advancing Translational Sciences (NCATS), 2012)
The campaign covered roughly 410,000 compounds. About 6,400 (1.6%) were called active. Inconclusive means that the source gave no clear call. Such entries were picked first, then a sample of the others. Calls come from the whole dose curve; as a rule, active = well fitted inhibition curve with a large enough effect; inconclusive = small, poorly fitted or top-dose-only effect; inactive = no such curve, though single readings can be large or run the other way. Potencies beside an inconclusive call are fits to weak or partial responses and may not hold up.

What follows are compounds tested against Glucagon-like peptide 1 receptor (Homo sapiens) (UniProt P43220) (assay: qHTS of GLP-1 Receptor Inverse Agonists (Inhibition Mode)). Conditions: HEK293 GLP-1R CRE-luciferase, luminescence, 24 h, GLP-1R form is constitutively active; activity change, negative = inhibition: at 38.3 µM (top of the series) unless noted.
Sequence of UniProt P43220 (P43220 whole entry, looked up): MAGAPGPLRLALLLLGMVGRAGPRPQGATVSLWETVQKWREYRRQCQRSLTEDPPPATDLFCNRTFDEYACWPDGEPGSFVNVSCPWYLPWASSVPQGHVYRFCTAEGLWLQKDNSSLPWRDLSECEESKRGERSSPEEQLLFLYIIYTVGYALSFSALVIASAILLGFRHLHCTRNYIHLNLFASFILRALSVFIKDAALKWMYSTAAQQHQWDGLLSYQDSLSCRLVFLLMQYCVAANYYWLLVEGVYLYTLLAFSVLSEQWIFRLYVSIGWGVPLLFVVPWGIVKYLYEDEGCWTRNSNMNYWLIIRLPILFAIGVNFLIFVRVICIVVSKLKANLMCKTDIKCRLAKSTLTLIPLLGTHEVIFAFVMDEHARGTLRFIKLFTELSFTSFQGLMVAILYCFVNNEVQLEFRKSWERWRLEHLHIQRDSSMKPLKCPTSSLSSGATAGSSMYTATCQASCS
How it was run: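 Seeding at 200 cells/uL, 12 h culture, 24 hr compound treatment, then luciferase reagent and a luminescence read; cells are HEK293 stably expressing a constitutively active GLP-1R plus cAMP-responsive luciferase.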
% is set by controls: 0 for no effect and ±100 for the full control effect; potency is the fitted concentration of half-maximal effect; tags give direction and shape of the fitted curve.
Note: nearly all actives have a fitted effect of over 55% in size.

Potency, inactive:
O=C(NC1CCN(Cc2ccccc2)CC1)c1ccccc1NS(=O)(=O)c1ccc(F)cc1, O=C(O)CCCNC(=O)c1cncc(Br)c1, CC1(C)Cc2ccccc2-c2nnc(-c3ccco3)n21, O=C(Nc1ccccc1)OCCCCOC(=O)Nc1ccccc1, Cc1c(NC(=O)c2cccc(-c3cc4ccccc4oc3=O)c2)cccc1-c1nc2ncccc2o1, CCN(Cc1ccccc1)Cc1c(O)ccc2c(=O)c(-c3ccc(Cl)cc3)c(C(F)(F)F)oc12, COc1ccc(OC)c(C(=O)CSc2ncc3c(n2)-c2ccccc2N(Cc2ccccc2C)S3(=O)=O)c1, O=C(COc1ccc(S(=O)(=O)N2CCCCC2)cc1)NCc1cccnc1, COCCN(CC(=O)Nc1cccc(C)c1C)C(=O)c1ccc(-n2cccn2)cc1, COc1cc(C(=O)N(Cc2cc3cc(C)ccc3[nH]c2=O)CC2CCCO2)cc(OC)c1OC (configuration not stated), COC(=O)CCCCCn1c(-c2ccccc2)cn2c3c(=O)n(C)c(=O)n(C)c3nc12, CC1=CS/C(=C(/C#N)C(=O)N2CCOCC2)N1c1ccccc1, CCOC(=O)c1sc2nc(CC(=O)OC)nc(NCC(=O)OC)c2c1C

Potency, inconclusive:
COc1ccccc1Nc1c2c(nc3ccc(NC(=O)c4ccccc4F)cc13)CCCC2 20 µM [inhibitor, single point], CCOc1ccc(C(=O)Nc2ccc3c(c2)OCCO3)cc1 28.2 µM [inhibitor, single point], COc1ccc(-c2nc3ccc(Br)cn3c2Cc2ccccc2C(F)(F)F)cc1OC 28.2 µM [inhibitor, single point], CC1CCN(c2ccc(-c3ccc(NC(=O)C(F)(F)F)cc3)nn2)CC1 1.12 µM [inhibitor, full curve, poor fit], CCN(CC)S(=O)(=O)c1ccc2oc(C(=O)N3CCCCCC3)c(C)c2c1 11.2 µM [inhibitor, partial curve, poor fit], C[C@H](CO)N1C[C@H](C)[C@H](CN(C)Cc2ccc(-c3ccccc3)cc2)Oc2ccc(NS(=O)(=O)c3ccccc3)cc2CC1=O 11.2 µM [inhibitor, partial curve, poor fit], O=C(CCSCc1ccccc1F)NCCc1ccccc1 10 µM [inhibitor, partial curve], O=c1cc(C=NNc2ccccc2)[nH]c(=O)[nH]1 25.1 µM [inhibitor, single point], Cc1c(C(=O)N(C)c2ccccc2Cl)cnn1-c1ccccc1 28.2 µM [inhibitor, single point], COc1ccc(-c2nc(-c3cccs3)no2)cc1 10 µM [inhibitor, partial curve, poor fit], Cc1ccc(C)c(N2CCN(CCCNC(=O)c3cnn(-c4ccccc4)c3C3CCN(C(=O)OC(C)(C)C)CC3)CC2)c1 15.8 µM [inhibitor, single point], Cc1ccc(Cn2c(=O)c3ccccc3n3nc(C)cc23)cc1 31.6 µM [inhibitor, single point], Cc1cc(NC(=S)N(Cc2cccc(Br)c2)CC2CCC(C(=O)O)CC2)ccc1Cl (configuration not stated) 11.2 µM [inhibitor, single point], Nc1nc2ccccc2n1CCOc1ccc(Cl)cc1 12.6 µM [inhibitor, partial curve, poor fit], COc1ccc(C=NN=C2c3ccccc3-c3ccccc32)cc1O 0.891 µM [inhibitor, full curve, poor fit], Cc1ccc(N(C(=O)Cc2c[nH]c3ccccc23)C(C(=O)NC2CCCCC2)c2ccco2)cc1 (configuration not stated) 28.2 µM [inhibitor, partial curve, poor fit], c1ccc2c(c1)oc1c(Nc3ccc4c(c3)OCCO4)ncnc12 14.1 µM [inhibitor, single point], C=CCNc1nc(Nc2ccc(-c3nc4ccccc4o3)cc2)nc(N2CCOCC2)n1 12.6 µM [inhibitor, single point], N/C(=N\OCC(=O)Nc1ccc(F)c(Cl)c1)c1ccccc1 20 µM [inhibitor, single point], Cc1ccc(N/C(N)=N/c2nc(C(F)(F)F)cc(C(F)(F)F)n2)cc1 17.8 µM [inhibitor, partial curve, poor fit], CCOC(=O)c1c(C)[nH]c(C2=NNC(=Nc3ccccc3)SC2)c1C 28.2 µM [inhibitor, single point], O=c1[nH]c2ccc(S(=O)(=O)N3CCN(c4ccccc4F)CC3)cc2s1 28.2 µM [inhibitor, single point], CCOC(=O)c1ccc(N2C(=O)C(CC(=O)NC)N(CCc3ccc(OC)c(OC)c3)C2=S)cc1 (configuration not stated) 11.2 µM [inhibitor, partial curve, poor fit], O=C(NC1CC1)c1cccc(NC(=O)C2CCN(S(=O)(=O)c3cccc(C(F)(F)F)c3)CC2)c1 11.2 µM [inhibitor, single point], Cc1ccc(C)c2sc(NC(=O)C3CC3)nc12 28.2 µM [inhibitor, single point], COc1ccc(C(CCNCc2ccccc2)c2ccc(F)cc2)cc1 (configuration not stated) 12.6 µM [inhibitor, single point], CCCc1cc(-c2n[nH]c(C(=O)OCC)c2-c2cscn2)c(O)cc1O 31.6 µM [inhibitor, partial curve, poor fit], COc1cccc2c1C(CO)N1C(C#N)C3CC(C(=O)O)C(C1C2)N3C (configuration not stated) 0.282 µM [inhibitor, full curve, poor fit]

Activity change, negative = inhibition, inconclusive:
Cc1ccc2c(CN(C)Cc3ccccc3)cc(=O)oc2c1C -35.2% [inhibitor]
